Article PMC4336329 (PLoS ONE, 2015)
The campaign covered roughly 310,000 compounds. About 14,000 (4.5%) showed an effect of 50% or more. Effects have a minus sign here. This is one part of the list.

The compounds below were run against human ether-à-go-go-related gene (hERG) potassium channel (human, UniProt Q12809) (assay: primary screen, population patch clamp on CHO cells stably expressing hERG).
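Note: peak tail current of the secondary pulse compared with the same well before compound.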

Chain of human ether-à-go-go-related gene (hERG) potassium channel (Q12809 whole entry, looked up): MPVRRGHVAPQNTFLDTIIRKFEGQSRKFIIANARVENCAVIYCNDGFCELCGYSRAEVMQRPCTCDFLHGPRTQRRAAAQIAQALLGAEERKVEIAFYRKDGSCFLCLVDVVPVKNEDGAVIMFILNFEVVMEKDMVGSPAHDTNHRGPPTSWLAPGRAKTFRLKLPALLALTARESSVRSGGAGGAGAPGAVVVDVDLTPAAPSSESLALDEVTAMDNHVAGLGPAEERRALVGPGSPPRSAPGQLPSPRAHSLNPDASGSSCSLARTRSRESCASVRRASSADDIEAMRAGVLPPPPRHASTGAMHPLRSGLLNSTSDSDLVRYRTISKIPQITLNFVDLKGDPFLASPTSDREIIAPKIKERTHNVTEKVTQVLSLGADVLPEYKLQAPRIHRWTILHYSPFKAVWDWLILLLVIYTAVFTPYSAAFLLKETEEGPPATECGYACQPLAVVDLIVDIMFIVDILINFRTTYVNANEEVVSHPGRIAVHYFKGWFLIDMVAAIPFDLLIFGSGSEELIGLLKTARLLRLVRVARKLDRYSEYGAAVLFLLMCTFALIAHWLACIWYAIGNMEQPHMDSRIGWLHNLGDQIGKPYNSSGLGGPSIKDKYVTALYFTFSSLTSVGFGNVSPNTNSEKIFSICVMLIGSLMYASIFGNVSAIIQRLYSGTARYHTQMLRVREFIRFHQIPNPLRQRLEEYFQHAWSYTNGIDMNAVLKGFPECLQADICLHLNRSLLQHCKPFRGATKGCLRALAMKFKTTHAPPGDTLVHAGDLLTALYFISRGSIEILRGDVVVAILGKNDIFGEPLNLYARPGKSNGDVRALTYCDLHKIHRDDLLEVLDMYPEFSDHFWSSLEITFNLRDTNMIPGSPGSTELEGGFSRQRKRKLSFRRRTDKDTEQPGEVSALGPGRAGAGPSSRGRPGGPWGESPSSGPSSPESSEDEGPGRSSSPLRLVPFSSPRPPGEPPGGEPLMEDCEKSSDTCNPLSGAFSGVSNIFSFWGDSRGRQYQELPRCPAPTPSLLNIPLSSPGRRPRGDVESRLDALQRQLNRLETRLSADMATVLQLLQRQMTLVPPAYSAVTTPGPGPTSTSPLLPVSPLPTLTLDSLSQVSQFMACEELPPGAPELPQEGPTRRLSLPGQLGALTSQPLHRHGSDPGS

| SMILES | hERG current change (%, negative = inhibition) at 10uM [%] |
| --- | --- |
| COc1ccc(NC(=O)c2cccc(N3C(=O)NC4CC3(C)Oc3ccccc34)c2)cc1 (centres unmarked) | -19.5 |
| Cc1ccc(OCCC(=O)NNC(=O)c2ccccc2F)cc1 | -8.25 |
| CC1CCCC(NC(=O)C2CCC(CNc3c(N4CCCCC4)c(=O)c3=O)CC2)C1C (centres unmarked) | 6.77 |
| COc1ccc(-c2cc(C(F)(F)F)n3nc(C(=O)NCCCn4ccnc4)cc3n2)cc1 | -41 |
| CN1CCCC(OC(=O)c2cc(Br)ccc2Cl)C1.Cl (centres unmarked) | -30.8 |
| CC(C)Cn1c(SC(C)C(=O)Nc2ccc(N3CCOCC3)cc2)nc2ccccc21 (centres unmarked) | -9.79 |
| Cc1cc(Nc2ccc(C(=O)O)cc2)nc(N)n1 | 30.5 |
| CCN(CCC(=O)O)c1ccccc1 | 9.57 |
| COc1cc2c(cc1OC)-c1n[nH]c(=S)n1C(C)(C)C2 | 1.75 |
| O=C(Nc1ccccc1N1CCCCC1)c1ccc(F)c(S(=O)(=O)N2CCOCC2)c1 | -20.7 |
| Cc1nn(Cc2ccc(C(=O)NC3CCCCC3)o2)c(C)c1Br | -34.6 |
| O=C(Cc1nc(-c2cnccn2)no1)NNC(=O)Nc1ccccc1 | 22 |
| C[C@]12CC[C@@H]3c4ccc(O)c(O)c4CC[C@H]3[C@@H]1CC[C@@H]2O | 15.4 |
| CC(C)(C)SCCNC(=O)CSc1ccccc1 | 5.14 |
| Cc1[nH]c(=O)[nH]c(=O)c1S(=O)(=O)NCCc1ccc(S(N)(=O)=O)cc1 | 13.5 |
| CCC(C)[C@H](NC(=O)NCc1ccc(Cl)cc1)C(=O)OC (some centres unmarked) | 0.971 |
| Cc1[nH]c2ccccc2c1C(O)c1ccncc1 (centres unmarked) | 17.1 |
| CCOC(=O)c1c(CN2CCN(C)CC2)oc2ccc(O)cc12 | -38 |
| COc1ccc(OCC(=O)Nc2ccc(N3CCN(C(=O)c4ccco4)CC3)cc2)cc1 | 0.974 |
| Cc1ccc(S(=O)(=O)C2(C(=O)N3CCCCCC3)CC2)cc1 | -11.6 |
| CCOC(=O)N1CCC(N2CCN(c3ccccc3)CC2)CC1.Cl | -21.4 |
| Cc1ccc(-c2cc(C(F)(F)F)n3ncc(C(=O)N4CCCCC4c4cccnc4)c3n2)cc1 (centres unmarked) | 4.63 |
| CCc1cc2c(NCCO)ncnc2s1 | 14.3 |

| SMILES | hERG current change (%, negative = inhibition) at 10uM [%] |
| --- | --- |
| COc1ccc(C)cc1NC(=O)C1CCCCC1C(=O)O (centres unmarked) | 14.7 |
| Cc1cccc(N2CCN(C(=O)c3ccncc3)CC2)c1C | -37 |
| O=C(Nc1ccc2[nH]c(=O)[nH]c2c1)c1cccc([N+](=O)[O-])c1 | 9.44 |
| CC(=O)OCc1cc(-c2nc3ccccc3[nH]c2=O)nn1-c1ccc(Cl)cc1 | 18 |
| COc1ccc(CCNCC(O)COc2ccc(OC)cc2C(C)(C)C)cc1 (centres unmarked) | -38.8 |
| CN(CC(=O)Nc1ccccc1Br)C(=O)c1cc(S(=O)(=O)N(C)C)ccc1N1CCCC1 | -8.64 |
| COc1ccc(OCCOC(=O)CNC(=O)c2ccc(Cl)cc2Cl)cc1 | -4.96 |
| Cn1c(N)c(C(=O)COC(=O)c2cc(C(F)(F)F)nc3ccccc23)c(=O)n(Cc2ccccc2)c1=O | 15.2 |
| COc1cc(NC2=Nc3cccc4cccc2c34)cc(OC)c1OC | 1.72 |
| Cc1nc(NCCN2CCOCC2)c2nnn(Cc3c(F)cccc3Cl)c2n1 | -8.32 |
| CCOc1ccc(CCNS(=O)(=O)c2cccc3nsnc23)cc1OCC | -14.7 |
| CC[C@]1(c2cccc(C)c2)C(=O)N(C(=O)OC)N1C(=O)OC | -6.61 |
| CC1CCN(C(=O)COC(=O)Cc2ccc(Br)cc2)CC1 | -23.2 |
| Cc1cc2nncn2c(Cc2ccccc2)n1 | -7.58 |
| O=C(CNC(=O)c1ccccc1)N=Nc1c(O)[nH]c2ccc(Br)cc12 | 9.61 |
| CC(C)CC(=O)Nc1nnc(SCC(=O)Nc2ccc(F)cc2)s1 | 16.8 |
| Cc1cccc(NC(=O)c2nc[nH]c2C(=O)NC2CCN(C(=O)OC(C)(C)C)CC2)c1 | 1.23 |
| COc1ccc(NC(=O)CSc2ccc3c4c(cccc24)C(=O)c2ccccc2-3)cc1 | -4.94 |
| CN(C)CC(C)(C)CNS(=O)(=O)c1ccc(Cl)cc1.Cl | -6.44 |
| Cc1c(NC(=S)NC(=O)c2cc3ccccc3o2)c(=O)n(-c2ccccc2)n1C | -2.85 |
| Cc1ccc(C(C)C)cc1OCC(=O)Nc1ccccc1N1CCCC1 | 10.3 |
| Cc1oc(-c2ccc(Cl)cc2)nc1CN1CCCC(C(=O)NCc2ccccn2)C1 (centres unmarked) | -67.8 |
| CCOC(=O)c1c(NC(=O)CN2CCOCC2)sc2c1CCCC2=O | -6.33 |

| SMILES | hERG current change (%, negative = inhibition) at 10uM [%] |
| --- | --- |
| Cc1ccc(C(=O)Nc2ccc(C(=O)N3CCCCC3)cc2)cc1 | -16.3 |
| Cc1cccc(NC(=O)CN(C)S(=O)(=O)c2ccc(Br)cc2)n1 | -21.8 |
| Cn1c(=O)c2c(nc(N/N=C/c3ccncc3)n2Cc2ccccc2)n(C)c1=O | -28.8 |
| COC(=O)c1[nH]c2ccc(Cl)cc2c1NC(=O)c1ccccc1[N+](=O)[O-] | -4.92 |
| Cc1nc2sc(C(=O)c3ccccc3)c(N)c2c(C)c1C | 19.7 |
| COc1ccc(CNC(=O)CCNS(=O)(=O)c2ccc(Br)s2)cc1 | 9.5 |
| N#Cc1c(-c2ccc(F)cc2)ccnc1N1CCOCC1 | 16 |
| CCc1ccc(Nc2nnc(SCC(=O)NCCN3C(=O)CSC3=O)s2)cc1 | -17.3 |
| c1ccc(NCc2nnc3n2CCCCC3)cc1 | -2.98 |
| CCC(=O)N1CC2(CC(c3cccc(NC(=O)CC(c4ccccc4)c4ccccc4)c3)=NO2)C[C@H]1C(N)=O (some centres unmarked) | 11.3 |
| Cc1nn(CCOc2ccccc2)c(=O)n1-c1ccccc1 | 1.55 |
| CC1(C)CC(=O)C2=C(C1)N(N1CCOCC1)C(N)=C(C#N)C2c1cccs1 (centres unmarked) | -31.8 |
| CCN(CC)C(=O)C1CCCN(c2ccc([N+](=O)[O-])cc2)C1 (centres unmarked) | -52.2 |
| CCCn1cnc2c(oc3ccccc32)c1=O | 4.8 |
| COC1CCCN(Cc2c(C(=O)N3CCN(C4CCCCC4)CC3)nc3ccccn23)C1 (centres unmarked) | 8.21 |
| COc1ccc(N2CCN(C(=O)CSc3nnc(-c4ccco4)n3C)CC2)cc1 | -10.4 |
| O=C(Nc1ccc(OC(F)(F)F)cc1)C1=NCCN1 | -17.2 |
| COc1cccc(C(c2ccccc2)N2C3CCC2CN(S(=O)(=O)c2ccc(F)cc2)CC3)c1 (centres unmarked) | -3.21 |
| CCc1nnc(NC(=O)C2CCCCC2)s1 | -1.6 |
| COc1ccc(Oc2ccc(-c3ccn[nH]3)cc2)cc1 | -0.611 |
| COCCn1c(SCC(=O)c2ccc3c(c2)OCCO3)nnc1-c1ccoc1C | -5.38 |
| C/C(CCc1ccco1)=N/NC(=O)CCC(=O)Nc1ccc(Br)cc1 | 10.2 |
| Cc1cc(C)c(NC(=O)CNC(=O)CNC(=O)C2CCCCC2)c(C)c1 | -4.8 |

| SMILES | hERG current change (%, negative = inhibition) at 10uM [%] |
| --- | --- |
| Cc1ccc(C(=S)N2CCN(Cc3ccccc3)CC2)cc1 | -42.9 |
| COC(=O)C(NC(=O)c1ccccc1)=C(C)C | 0.816 |
| COc1ccccc1C(=O)Nc1ccc(-c2nnc(SCC(=O)O)n2C)cc1 | 19.2 |
| O=C(COC(=O)c1cc(-c2cccs2)nc2ccccc12)NCc1ccco1 | -20.5 |
| CC(C)[C@H](NC(=O)NC1CCN(Cc2ccccc2)CC1)C(=O)O | -2.64 |
| CCC(Sc1nc2cc3c(cc2c(=O)n1Cc1ccco1)OCO3)C(=O)Nc1ccccc1OC (centres unmarked) | 2.52 |
| COCCNC(=O)c1ccc(N2CC3CC(C2)c2cccc(=O)n2C3)c(NC(=O)c2ccc(F)cc2)c1 (centres unmarked) | 12.3 |
| COc1ccc(/C=N/NC(=O)c2ccn[nH]2)cc1Cn1cc([N+](=O)[O-])cn1 | 9.25 |
| NNC(=O)CCN1CCN(C(c2ccccc2)c2ccccc2)CC1 | -7.7 |
| COc1cccc(N2CCN(C(=O)C3CCCN(S(=O)(=O)c4cnc[nH]4)C3)CC2)c1 (centres unmarked) | 17.4 |
| CC(=O)Oc1c(S(=O)(=O)c2ccccc2)c(C)nn1C(C)(C)C | -8.37 |
| COc1ccc(-c2nc(Cn3c(SCc4cccc(F)c4)nc4ccncc43)c(C)o2)cc1OC | -62.4 |
| Cc1nn(C)cc1-c1cc(C(=O)O)c2ccccc2n1 | 12.4 |
| CCc1cccc(CC)c1NC(=S)NCCc1c(C)[nH]c2ccc(C)cc12 | -27 |
| O=C(CCCO)NNc1c2ccccc2nc2ccccc12 | -27 |
| Cc1nc2ccccc2n1Cc1ccc(Cl)cc1 | -2.56 |
| COc1cc(NC(=O)c2cc3ccccc3o2)c(OC)cc1Br | 5.55 |
| CC(=O)c1sc(NC(=O)c2ccc(Br)o2)nc1C | 13.9 |
| Cn1c(=O)c([N+](=O)[O-])c(NC2CCS(=O)(=O)C2)c2ccccc21 (centres unmarked) | 6.46 |
| Cc1cccc(N2C(=O)c3ccc(C(=O)Nc4cccc(C(=O)O)c4)cc3C2=O)c1 | 5.29 |
